Counter-ions that a name gives are not always drawn. Like-named read-outs stand apart in the source and are kept apart here.
Experiments:
[1] = tested on: fibrin-induced microglia activation; experiment: Image-based assay of fibrin-induced microglia activation (HTS and dose response); format: cell-based, rat; conditions: for inhibition at 10 µM: read-out: Fibrin % inhibition
[2] = tested on: LPS-induced microglia activation; experiment: Image-based assay of LPS-induced microglia activation (HTS and dose response); format: cell-based, rat; conditions: for IC50 / inhibition at 10 µM: Rattus norvegicus, Microglia; for inhibition at 10 µM: read-out: LPS % inhibition
in vitro [3] = conditions: rat
[4] = tested on: fibrin- and LPS-induced microglia activation; format: cell-based, rat
in vitro [5] = conditions: rat, Cell Toxicity IC50 (uM) [cFib assay]
[6] = Rattus norvegicus, Microglia, 48 h, read-out: Fibrin IC50
[7] = Rattus norvegicus, Microglia, read-out: Fibrin IC50 (uM)
[8] = Rattus norvegicus, Microglia, read-out: Fibrin IC50 (uM) (Suppl. Table 7)
[9] = read-out: LPS IC50 (uM) (Suppl. Table 7)
[10] = Rattus norvegicus, Microglia, read-out: fib_IC50 (uM)

Clc1ccc2c(c1)C(N1CCNCC1)=Nc1ccccc1O2 [Amoxapine, reference compound]
IC50 [1, 6]: 20 µM
IC50 [1, 7]: 20 µM
IC50 [1, 8]: 20 µM
IC50 ([2]; 48 h, read-out: LPS IC50): 11 µM
IC50 ([2]; read-out: LPS IC50 (uM)): 11 µM
IC50 [2, 9]: 11 µM

CCCCCCCCCCCCCCCC[n+]1ccccc1 [Cetylpyridinium Bromide]
inhibition at 10 µM ([1]; Rattus norvegicus, Microglia): 112%
inhibition at 10 µM ([2]; 48 h): 114%

C(=C\c1ccccc1)/CN1CCN(C(c2ccccc2)c2ccccc2)CC1 [Cinnarizine]
inhibition at 10 µM ([1]; Rattus norvegicus, Microglia): -32%
inhibition at 10 µM [2]: -2%

COc1cc2c(c(OC)c1OC)-c1ccc(OC)c(=O)cc1[C@@H](NC(C)=O)CC2 [Colchicine, reference compound]
IC50 [1, 10]: 0.022 µM
IC50 ([1]; read-out: fib_IC50): 0.015 µM

Clc1ccc2c(c1)CCc1cccnc1C2=C1CCNCC1 [Desloratadine]
inhibition at 10 µM [2]: 45%

C[C@@H]1C[C@H]2[C@@H]3CCC4=CC(=O)C=C[C@]4(C)[C@@]3(F)[C@@H](O)C[C@]2(C)[C@@]1(O)C(=O)COP(=O)(O)O [Dexamethasone Phosphate]
inhibition at 10 µM ([1]; Rattus norvegicus, Microglia): 103%
inhibition at 10 µM ([2]; 48 h): 93%

C[C@@H]1C[C@H]2[C@@H]3CCC4=CC(=O)C=C[C@]4(C)[C@@]3(F)[C@@H](O)C[C@]2(C)[C@@]1(O)C(=O)COP(=O)(O)O [Dexamethasone sodium phosphate, reference compound]
IC50 (in vitro [3]): > 20000 nM
Fibrin % inhibition [1]: 112%
IC50 [1, 6]: 0.004 µM
IC50 [1, 7]: 0.004 µM
IC50 [1, 8]: 0.004 µM
IC50 [1, 10]: 0.002 µM
Activity [4]: fib/LPS
LPS % inhibition [2]: 100%
IC50 ([2]; 48 h, read-out: LPS IC50): 2 µM
IC50 ([2]; read-out: LPS IC50 (uM)): 2 µM
IC50 [2, 9]: 2 µM
IC50 ([2]; read-out: LPS_IC50 (uM)): 0.005 µM
IC50 (in vitro [5]): > 20 µM

CCN(CC)CCOC(=O)C1(C2CCCCC2)CCCCC1 [Dicyclomine]
inhibition at 10 µM ([1]; Rattus norvegicus, Microglia): -36%
inhibition at 10 µM [2]: 16%

CCN(CC)C(=O)N[C@H]1C=C2c3cccc4[nH]cc(c34)C[C@H]2N(C)C1 [Lisuride]
inhibition at 10 µM ([1]; Rattus norvegicus, Microglia): -27%
inhibition at 10 µM ([2]; 48 h): -9%

CN(C)CCN(Cc1cccs1)c1ccccn1 [Methapyrilene]
inhibition at 10 µM ([1]; Rattus norvegicus, Microglia): 17%
inhibition at 10 µM ([2]; 48 h): 13%

Clc1ccc(COC(Cn2ccnc2)c2ccc(Cl)cc2Cl)c(Cl)c1 (centres unmarked) [Miconazole nitrate, reference compound]
IC50 [1, 6]: 20 µM
IC50 [1, 7]: 20 µM
IC50 [1, 8]: 20 µM
IC50 ([2]; 48 h, read-out: LPS IC50): > 20 µM
IC50 ([2]; read-out: LPS IC50 (uM)): > 20 µM
IC50 [2, 9]: > 20 µM

Cc1ccccc1C(OCCN(C)C)c1ccccc1 (centres unmarked) [Orphenadrine]
inhibition at 10 µM ([1]; Rattus norvegicus, Microglia): -17%
inhibition at 10 µM ([2]; 48 h): 10%

Clc1ccc(CO/N=C(\Cn2ccnc2)c2ccc(Cl)cc2Cl)c(Cl)c1 [Oxiconazole]
inhibition at 10 µM ([1]; Rattus norvegicus, Microglia): 12%
inhibition at 10 µM ([2]; 48 h): 15%

CN1CCN(CCCN2c3ccccc3Sc3ccc(Cl)cc32)CC1 [Prochlorperazine dimaleate, reference compound]
IC50 [1, 10]: 4.38 µM
IC50 ([2]; read-out: LPS_IC50 (uM)): 2.01 µM

Clc1ccc(CSC(Cn2ccnc2)c2ccc(Cl)cc2Cl)cc1 (centres unmarked) [Sulconazole]
inhibition at 10 µM ([1]; Rattus norvegicus, Microglia): 10%
inhibition at 10 µM [2]: 13%

CSc1ccc2c(c1)N(CCC1CCCCN1C)c1ccccc1S2 (centres unmarked) [Thioridazine hydrochloride, reference compound]
IC50 [1, 10]: 1.01 µM
IC50 ([2]; read-out: LPS_IC50 (uM)): 0.677 µM
